# Results taken from the supplement of paper PMC8728848.
# The other results are listed elsewhere or left out.
# B1: a L Fucosidase (Streptosporangium roseum), D2B1P1_STRRD (protein)
# chain: MRRKLLLVPAVGLLVIGSIFATQPVASADTPPVYEPTVESLNSHPVPQWFNDDKFGIFIHWGAYSVPAWGPRGSYAEWYGNYMNAGGSATNAHHKATYGQDFNYDAFLQQWKAEKFDPADWVKLFKDAGAKYFVLTSKHHEGMALWDSKSSGRDSVDLGPGRDLAKELFDAARKDEAKLKAGFYYSLYEWYNPAYTGRPATNPYTGAEIPYTGAPGGGDYVKDYMLPQMRELIDGYDPDIIWCDGQWEKPASYWNTAGVIADYYNKALNSGKEVAVANRCKIQSGNLDSPELDFQTPEYTVKPDIDPVKWESSRGIAHSYGYNQNEPEEDHLTSDQLVDSLVDIVSKNGNLLLDIGPKADGTIPEIQRQRLLDIGAWLKANGEAIYGTTYWNRAEEKGGPDDVRYTAKDATLYATALKWPGEQLTLGADLPVDHSTRITMLGSGARLSWSRDEQGRVVVNTPQEAGKHAYVFKIETPGVRSLLRTSSSLAKEIAPGRTISGELTVTNPGKRHTPATKLSLTVPQGWTATLGAPRVRPLGPGESVKVPISVSAPEGVAPAPYTLGLYQRTGRMGTTTALPLTVNRPNLSLGKPATQKSTGYDAPASRAVDGNTGGDWSAGSTTHTAEPEKQAWWQVDLGASARLDSVDVWNRLDCCADRLKDFWVMASDQPFTTDDLDQARTAPGVTAVHVGEQAGSPSKVKLPEGTRGRYVRIQLASPSNPLSLAEVQVRGSMARPNLSLGKPATQKSTGYDAPASRAVDGNTGGDWSAGSTTHTAEPEKQAWWQVDLGASARLDSVDVWNRLDCCADRLKDFWVMASDQPFTTDDLDQARTAPGVTAVHVGEQAGSPSKVKLPEGTRGRYVRIQLASPSNPLSLAEVQVRLEHHHHHHS
# How the values were obtained:
# Test in all cases: glycan array binding signal (z-score within array); higher = stronger binding
# Conditions in all cases: glycan notation: IUPAC condensed, linker removed
# [1] = biological target: Neu5Ac(a2-3)Gal(b1-3)GlcNAc(b1-6)GalNAc
# Procedure, shortened: (§1)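 Glycan array data were curated from 3228 arrays in the Consortium for Functional Glycomics database and kept only where the protein sequence was available. Glycan names were converted to IUPAC-condensed notation, and columns mapping to the same glycan were averaged. The binding signal is a within-array Z-score, averaged across arrays of the same protein sequence at different concentrations or buffers and across linkers. Negative Z-scores can be read as non-binding.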
# [2] = biological target: Neu5Ac(a2-3)Gal(b1-3)GlcNAc6S
# Procedure, shortened: as §1
# [3] = biological target: Neu5Ac(a2-3)Gal(b1-3)[Fuc(a1-4)]GlcNAc
# Procedure, shortened: as §1
# [4] = biological target: Neu5Ac(a2-3)Gal(b1-3)[Fuc(a1-4)]GlcNAc(b1-3)Gal(b1-3)[Fuc(a1-4)]GlcNAc
# Procedure, shortened: as §1
# [5] = biological target: Neu5Ac(a2-3)Gal(b1-3)[Fuc(a1-4)]GlcNAc(b1-3)Gal(b1-4)[Fuc(a1-3)]GlcNAc
# Procedure, shortened: as §1
# [6] = biological target: Neu5Ac(a2-3)Gal(b1-3)[GlcNAc(b1-6)]GalNAc
# Procedure, shortened: as §1
# [7] = biological target: Neu5Ac(a2-3)Gal(b1-3)[Neu5Ac(a2-6)]GalNAc
# Procedure, shortened: as §1
# [8] = biological target: Neu5Ac(a2-3)Gal(b1-3)[Neu5Ac(a2-6)]GlcNAc(b1-3)[Fuc(a1-3)[Gal(b1-4)]GlcNAc(b1-6)]Gal(b1-4)Glc
# Procedure, shortened: as §1
# [9] = biological target: Neu5Ac(a2-3)Gal(b1-3)]Neu5Ac(a2-3)Gal(b1-4)]GlcNAc
# Procedure, shortened: as §1
# Neu5Ac(a2-3)Gal(b1-4)Glc = biological target: Neu5Ac(a2-3)Gal(b1-4)Glc
# Procedure, shortened: as §1
# [10] = biological target: Neu5Ac(a2-3)Gal(b1-4)GlcNAc
# Procedure, shortened: as §1
# [11] = biological target: Neu5Ac(a2-3)Gal(b1-4)GlcNAc(b1-2)Man
# Procedure, shortened: as §1
# [12] = biological target: Neu5Ac(a2-3)Gal(b1-4)GlcNAc(b1-2)Man(a1-3)[GlcNAc(b1-4)][Neu5Ac(a2-3)Gal(b1-4)GlcNAc(b1-2)Man(a1-6)]Man(b1-4)GlcNAc(b1-4)GlcNAc
# Procedure, shortened: as §1
# [13] = biological target: Neu5Ac(a2-3)Gal(b1-4)GlcNAc(b1-2)Man(a1-3)[Neu5Ac(a2-3)Gal(b1-4)GlcNAc(b1-2)Man(a1-6)]Man(b1-4)GlcNAc(b1-4)GlcNAc
# Procedure, shortened: as §1
# [14] = biological target: Neu5Ac(a2-3)Gal(b1-4)GlcNAc(b1-2)Man(a1-3)[Neu5Ac(a2-3)Gal(b1-4)GlcNAc(b1-2)Man(a1-6)]Man(b1-4)GlcNAc(b1-4)[Fuc(a1-6)]GlcNAc
# Procedure, shortened: as §1
# [15] = biological target: Neu5Ac(a2-3)Gal(b1-4)GlcNAc(b1-2)Man(a1-3)[Neu5Ac(a2-6)Gal(b1-4)GlcNAc(b1-2)Man(a1-6)]Man(b1-4)GlcNAc(b1-4)GlcNAc
# Procedure, shortened: as §1
# [16] = biological target: Neu5Ac(a2-3)Gal(b1-4)GlcNAc(b1-2)[Neu5Ac(a2-3)Gal(b1-4)GlcNAc(b1-4)]Man(a1-3)[GlcNAc(b1-4)][Neu5Ac(a2-3)Gal(b1-4)GlcNAc(b1-2)[Neu5Ac(a2-3)Gal(b1-4)GlcNAc(b1-6)]Man(a1-6)]Man(b1-4)GlcNAc(b1-4)GlcNAc
# Procedure, shortened: as §1
# [17] = biological target: Neu5Ac(a2-3)Gal(b1-4)GlcNAc(b1-2)[Neu5Ac(a2-3)Gal(b1-4)GlcNAc(b1-4)]Man(a1-3)[GlcNAc(b1-4)][Neu5Ac(a2-3)Gal(b1-4)GlcNAc(b1-4)Man(a1-6)]Man(b1-4)GlcNAc(b1-4)GlcNAc
# Procedure, shortened: as §1
# [18] = biological target: Neu5Ac(a2-3)Gal(b1-4)GlcNAc(b1-2)[Neu5Ac(a2-3)Gal(b1-4)GlcNAc(b1-6)]Man(a1-6)[Neu5Ac(a2-3)Gal(b1-4)GlcNAc(b1-2)Man(a1-3)][GlcNAc(b1-4)]Man(b1-4)GlcNAc(b1-4)GlcNAc
# Procedure, shortened: as §1
# [19] = biological target: Neu5Ac(a2-3)Gal(b1-4)GlcNAc(b1-3)Gal
# Procedure, shortened: as §1
# [20] = biological target: Neu5Ac(a2-3)Gal(b1-4)GlcNAc(b1-3)Gal(b1-3)GlcNAc
# Procedure, shortened: as §1
# [21] = biological target: Neu5Ac(a2-3)Gal(b1-4)GlcNAc(b1-3)Gal(b1-4)GlcNAc
# Procedure, shortened: as §1
# [22] = biological target: Neu5Ac(a2-3)Gal(b1-4)GlcNAc(b1-3)Gal(b1-4)GlcNAc(b1-2)Man(a1-3)[Neu5Ac(a2-3)Gal(b1-4)GlcNAc(b1-3)Gal(b1-4)GlcNAc(b1-2)Man(a1-6)]Man(b1-4)GlcNAc(b1-4)GlcNAc
# Procedure, shortened: as §1
# [23] = biological target: Neu5Ac(a2-3)Gal(b1-4)GlcNAc(b1-3)Gal(b1-4)GlcNAc(b1-3)Gal(b1-4)GlcNAc
# Procedure, shortened: as §1
# [24] = biological target: Neu5Ac(a2-3)Gal(b1-4)GlcNAc(b1-3)Gal(b1-4)GlcNAc(b1-3)Gal(b1-4)GlcNAc(b1-2)Man(a1-3)[Neu5Ac(a2-3)Gal(b1-4)GlcNAc(b1-3)Gal(b1-4)GlcNAc(b1-3)Gal(b1-4)GlcNAc(b1-2)Man(a1-6)]GalNAc
# Procedure, shortened: as §1
# [25] = biological target: Neu5Ac(a2-3)Gal(b1-4)GlcNAc(b1-3)Gal(b1-4)GlcNAc(b1-3)GalNAc
# Procedure, shortened: as §1
# [26] = biological target: Neu5Ac(a2-3)Gal(b1-4)GlcNAc(b1-3)Gal(b1-4)GlcNAc(b1-3)[Neu5Ac(a2-3)Gal(b1-4)GlcNAc(b1-3)Gal(b1-4)GlcNAc(b1-6)]GalNAc
# Procedure, shortened: as §1
# [27] = biological target: Neu5Ac(a2-3)Gal(b1-4)GlcNAc(b1-3)Gal(b1-4)GlcNAc(b1-6)[Gal(b1-3)]GalNAc
# Procedure, shortened: as §1
# [28] = biological target: Neu5Ac(a2-3)Gal(b1-4)GlcNAc(b1-3)Gal(b1-4)[Fuc(a1-3)]GlcNAc
# Procedure, shortened: as §1
# [29] = biological target: Neu5Ac(a2-3)Gal(b1-4)GlcNAc(b1-3)GalNAc
# Procedure, shortened: as §1
binder,measurement,setting,value
B1,glycan array binding signal (z-score),[1],-0.493
same,glycan array binding signal (z-score),[2],-0.365
same,glycan array binding signal (z-score),[3],-0.014
same,glycan array binding signal (z-score),[4],-0.033
same,glycan array binding signal (z-score),[5],-0.118
same,glycan array binding signal (z-score),[6],0.619
same,glycan array binding signal (z-score),[7],-0.108
same,glycan array binding signal (z-score),[8],-0.531
same,glycan array binding signal (z-score),[9],-0.363
same,glycan array binding signal (z-score),Neu5Ac(a2-3)Gal(b1-4)Glc,-0.388
same,glycan array binding signal (z-score),[10],-0.407
same,glycan array binding signal (z-score),[11],1.75
same,glycan array binding signal (z-score),[12],-0.463
same,glycan array binding signal (z-score),[13],-0.59
same,glycan array binding signal (z-score),[14],-0.425
same,glycan array binding signal (z-score),[15],-0.249
same,glycan array binding signal (z-score),[16],-0.534
same,glycan array binding signal (z-score),[17],-0.283
same,glycan array binding signal (z-score),[18],-0.488
same,glycan array binding signal (z-score),[19],-0.52
same,glycan array binding signal (z-score),[20],-0.34
same,glycan array binding signal (z-score),[21],-0.428
same,glycan array binding signal (z-score),[22],0.456
same,glycan array binding signal (z-score),[23],0.296
same,glycan array binding signal (z-score),[24],0.804
same,glycan array binding signal (z-score),[25],0.074
same,glycan array binding signal (z-score),[26],0.022
same,glycan array binding signal (z-score),[27],-0.194
same,glycan array binding signal (z-score),[28],-0.411
same,glycan array binding signal (z-score),[29],-0.02
